From patent US10793601B2, “Therapeutic spalt-like transcription factor 4 (SALL4) peptide” (National University of Singapore, priority 2016, dated 2020)
Not every detail of the peptide structures is certain; ends, links or a residue may be inferred. Some entries share one result that the patent states for a list of compounds. At least one structure is not confirmed: it was looked up by name or label, or the drawing left a doubt.

Molecular target: T1, RBBp4 (Homo sapiens, UniProt Q09028)
T1 construct: purchased SinoBiological
T1 sequence (Q09028 whole entry): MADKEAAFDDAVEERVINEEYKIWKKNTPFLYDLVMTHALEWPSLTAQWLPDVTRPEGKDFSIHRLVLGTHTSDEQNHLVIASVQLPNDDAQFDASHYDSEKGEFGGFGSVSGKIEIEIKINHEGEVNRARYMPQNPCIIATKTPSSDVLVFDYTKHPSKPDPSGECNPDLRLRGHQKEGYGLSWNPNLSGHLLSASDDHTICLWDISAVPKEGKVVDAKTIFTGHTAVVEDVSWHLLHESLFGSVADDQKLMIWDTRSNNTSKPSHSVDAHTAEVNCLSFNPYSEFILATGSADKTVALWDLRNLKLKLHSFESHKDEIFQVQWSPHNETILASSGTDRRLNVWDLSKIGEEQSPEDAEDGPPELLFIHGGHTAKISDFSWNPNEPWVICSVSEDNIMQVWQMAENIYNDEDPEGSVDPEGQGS
Experiment: Fluorescence polarization (FP) competition with FITC-labelled SALL4 WT peptide
Type: binding
Settings: displacement of FITC-SALL4 WT peptide from RBBp4
Description: FIGS. 3A-3E. Key residues involved in SALL4 (1-12)-RBBp4 binding. […] The difference in the binding free energy (ΔΔGbind) of the alanine mutants (ΔGmutant, Ala7 was mutated to glycine) and wild type (ΔGwild type) was calculated (ΔΔGbind=ΔGmutant−ΔGwild type). ΔΔGbind was tabulated (left) and plotted in a bar chart (right). […] Mutated residues are highlighted in red. The IC50 of each peptide, including WT, was determined by Fluorescence Polarization (FP). Different concentrations of each peptide were titrated into a mixture of 0.04 μM RBBp4 and 0.01 μM of C-labelled FITC-SALL4 WT peptide. Polarization was measured in mP. […] Pep-1 carrier was added to the peptide to facilitate cellular penetration of the peptides.
Peptides were titrated into a master mix of 0.045 μM RBBp4 and […] C-terminal FITC-labelled WT peptide (synthesized by Thermo Scientific). Reactions were incubated at room temperature before the plate was read with an Envision instrument (Perkin Elmer). IC50 values of peptides were determined using Prism (GraphPad).

| Substance | IC50 (μM) | IC50 [µM] |
| --- | --- | --- |
| Ac-RRKQAKPAHI-NH2 [Peptide 14] | yielded more potent peptides | – |
| Ac-MSRAAQAKPQHI-NH2 (N-terminus and C-terminus assumed) [Peptide R4A-K5A] | – | > 100 |
| Ac-MSRRKAAKPQHI-NH2 (N-terminus and C-terminus assumed) [Peptide Q6A] | – | 1.3 |
| Ac-MSARKQAKPQHI-NH2 (N-terminus and C-terminus assumed) [Peptide R3A] | – | 3.8 |
| Ac-RRKQAAPQHI-NH2 [Peptide 12] | yielded more potent peptides | – |
| Ac-RRKAAKPQHI-NH2 [Peptide 11] | yielded more potent peptides | – |
| Ac-RRKQAKPQAI-NH2 [Peptide 15] | yielded more potent peptides | – |
| Ac-RRKQAKAQHI-NH2 [Peptide 13] | yielded more potent peptides | – |
| Ac-RRKQAKPQHA-NH2 [Peptide 16] | yielded more potent peptides | – |
| Ac-MSARAQAKPQHI-NH2 (N-terminus and C-terminus assumed) [MUT] | – | > 100 |
| Ac-MSAAKQAKPQHI-NH2 (N-terminus and C-terminus assumed) [Peptide R3A-R4A] | – | > 100 |
